No constants are given. Whether binding was seen depends on the method and setting. Some binding calls cover weakened binding; strength is not graded here. Tags and fused reporters may be left off the sequences shown.

Assay in all cases: two-hybrid; directed assay; yeast AH109 with pairs of pGADT7 and pGBKT7 plasmids; growth on SD-Leu/-Trp/-Ade/-His
Test [1] deals with T1, MYB75 (pGBKT7 fusion, yeast two-hybrid) (Arabidopsis thaliana) (UniProt Q9FE25).
T1 sequence: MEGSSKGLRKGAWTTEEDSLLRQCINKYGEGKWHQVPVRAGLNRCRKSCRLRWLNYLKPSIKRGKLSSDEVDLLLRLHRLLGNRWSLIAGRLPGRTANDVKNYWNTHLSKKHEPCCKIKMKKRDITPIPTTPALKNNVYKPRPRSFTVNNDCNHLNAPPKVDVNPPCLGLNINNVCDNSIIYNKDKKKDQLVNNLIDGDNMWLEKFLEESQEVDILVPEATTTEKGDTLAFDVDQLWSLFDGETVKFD

Test [2] has as its target T2, TPR4 (yeast two-hybrid fusion) (Arabidopsis thaliana) (UniProt Q27GK7).
T2 sequence: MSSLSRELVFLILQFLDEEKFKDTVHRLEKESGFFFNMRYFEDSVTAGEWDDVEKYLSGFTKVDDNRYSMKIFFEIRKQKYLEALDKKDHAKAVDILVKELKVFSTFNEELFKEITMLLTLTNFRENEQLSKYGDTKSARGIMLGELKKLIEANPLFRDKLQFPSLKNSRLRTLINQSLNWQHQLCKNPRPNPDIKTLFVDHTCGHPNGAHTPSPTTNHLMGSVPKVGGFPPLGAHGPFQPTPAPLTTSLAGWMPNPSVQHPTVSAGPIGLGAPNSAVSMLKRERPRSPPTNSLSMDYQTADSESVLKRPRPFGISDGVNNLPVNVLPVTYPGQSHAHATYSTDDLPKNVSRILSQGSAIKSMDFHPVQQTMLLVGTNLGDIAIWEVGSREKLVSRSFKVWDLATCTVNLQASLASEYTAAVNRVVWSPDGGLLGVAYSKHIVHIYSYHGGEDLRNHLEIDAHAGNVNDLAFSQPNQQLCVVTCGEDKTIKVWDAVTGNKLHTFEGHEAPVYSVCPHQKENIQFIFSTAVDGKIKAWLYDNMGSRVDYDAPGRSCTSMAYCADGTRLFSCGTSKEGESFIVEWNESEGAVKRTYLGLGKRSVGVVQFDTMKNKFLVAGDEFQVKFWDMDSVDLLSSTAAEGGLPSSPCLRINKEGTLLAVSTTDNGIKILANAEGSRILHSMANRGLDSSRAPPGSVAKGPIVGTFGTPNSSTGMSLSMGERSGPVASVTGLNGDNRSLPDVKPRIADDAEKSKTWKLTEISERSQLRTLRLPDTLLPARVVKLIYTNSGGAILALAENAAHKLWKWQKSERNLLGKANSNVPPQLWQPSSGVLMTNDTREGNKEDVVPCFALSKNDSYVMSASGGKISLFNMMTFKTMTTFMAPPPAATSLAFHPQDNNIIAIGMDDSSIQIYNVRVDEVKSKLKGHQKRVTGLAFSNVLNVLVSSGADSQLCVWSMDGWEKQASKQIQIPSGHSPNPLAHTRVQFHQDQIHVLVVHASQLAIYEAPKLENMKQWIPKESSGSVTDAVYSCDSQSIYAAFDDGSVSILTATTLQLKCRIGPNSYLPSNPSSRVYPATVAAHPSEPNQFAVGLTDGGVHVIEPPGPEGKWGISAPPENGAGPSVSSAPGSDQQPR

In test [3] the target is T3, TPR1 (yeast two-hybrid fusion) (Arabidopsis thaliana) (UniProt Q0WV90).
T3 sequence: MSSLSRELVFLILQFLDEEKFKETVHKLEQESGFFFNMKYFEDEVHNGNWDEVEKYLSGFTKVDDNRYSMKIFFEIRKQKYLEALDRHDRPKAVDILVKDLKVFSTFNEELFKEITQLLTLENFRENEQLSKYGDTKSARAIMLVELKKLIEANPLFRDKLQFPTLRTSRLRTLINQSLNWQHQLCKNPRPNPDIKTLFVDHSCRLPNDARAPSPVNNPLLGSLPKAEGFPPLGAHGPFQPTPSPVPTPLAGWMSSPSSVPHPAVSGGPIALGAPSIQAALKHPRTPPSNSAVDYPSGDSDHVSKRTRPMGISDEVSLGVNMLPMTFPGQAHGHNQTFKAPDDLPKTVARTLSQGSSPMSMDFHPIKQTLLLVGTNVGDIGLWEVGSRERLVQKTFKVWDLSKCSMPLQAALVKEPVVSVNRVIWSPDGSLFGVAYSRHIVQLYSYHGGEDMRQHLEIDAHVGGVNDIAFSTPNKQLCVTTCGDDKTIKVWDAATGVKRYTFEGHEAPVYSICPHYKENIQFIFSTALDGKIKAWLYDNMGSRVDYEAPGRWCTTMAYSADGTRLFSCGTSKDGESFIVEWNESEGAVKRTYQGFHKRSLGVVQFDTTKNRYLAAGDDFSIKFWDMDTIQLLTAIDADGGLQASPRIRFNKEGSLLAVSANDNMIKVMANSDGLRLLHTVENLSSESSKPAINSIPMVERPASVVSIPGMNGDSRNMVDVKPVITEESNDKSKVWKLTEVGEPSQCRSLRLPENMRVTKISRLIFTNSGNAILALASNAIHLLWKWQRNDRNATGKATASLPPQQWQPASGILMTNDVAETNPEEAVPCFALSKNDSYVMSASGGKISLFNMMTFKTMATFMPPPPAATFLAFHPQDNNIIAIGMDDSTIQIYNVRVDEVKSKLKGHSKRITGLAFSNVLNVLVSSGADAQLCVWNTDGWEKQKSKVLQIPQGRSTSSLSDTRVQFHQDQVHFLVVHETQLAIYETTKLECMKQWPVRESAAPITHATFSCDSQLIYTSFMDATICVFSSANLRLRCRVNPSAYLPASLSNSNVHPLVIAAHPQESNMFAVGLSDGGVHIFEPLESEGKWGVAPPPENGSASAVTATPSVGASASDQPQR

B1: HAT1 (pGADT7 fusion, yeast two-hybrid) (protein, UniProt P46600 1-282)
chain: MMMGKEDLGLSLSLGFAQNHPLQLNLKPTSSPMSNLQMFPWNQTLVSSSDQQKQQFLRKIDVNSLPTTVDLEEETGVSSPNSTISSTVSGKRRSTEREGTSGGGCGDDLDITLDRSSSRGTSDEEEDYGGETCRKKLRLSKDQSAVLEDTFKEHNTLNPKQKLALAKKLGLTARQVEVWFQNRRARTKLKQTEVDCEYLKRCVEKLTEENRRLEKEAAELRALKLSPRLYGQMSPPTTLLMCPSCERVAGPSSSNHNQRSVSLSPWLQMAHGSTFDVMRPRS
On to B1, for which the binding entry in test [1] was “binds”; in test [2] it was “no binding”; in test [3], “no binding”.

(Values after article PMC6443190, “Regulation of anthocyanin accumulation via MYB75/HAT1/TPL-mediated transcriptional repression” (PLoS Genetics, 2019).)
